Test results as given in the supplement of paper PMC3334620.
In all, about 33,000 sequences were measured (“E-score (-0.5 to 0.5)”: median about -0.011, highest 2% from about 0.28 on). This is one part of the list.

Each sequence was assayed against T1, Gcr1 (UniProt P07261) (assay: PBM E-score (8-mer binding enrichment) (E-score (-0.5 to 0.5)); higher = stronger / more preferred TF binding; most listed sequences are background and not binding sites). Details: protein concentration: 100 nM; construct: GST-full length.
T1 sequence: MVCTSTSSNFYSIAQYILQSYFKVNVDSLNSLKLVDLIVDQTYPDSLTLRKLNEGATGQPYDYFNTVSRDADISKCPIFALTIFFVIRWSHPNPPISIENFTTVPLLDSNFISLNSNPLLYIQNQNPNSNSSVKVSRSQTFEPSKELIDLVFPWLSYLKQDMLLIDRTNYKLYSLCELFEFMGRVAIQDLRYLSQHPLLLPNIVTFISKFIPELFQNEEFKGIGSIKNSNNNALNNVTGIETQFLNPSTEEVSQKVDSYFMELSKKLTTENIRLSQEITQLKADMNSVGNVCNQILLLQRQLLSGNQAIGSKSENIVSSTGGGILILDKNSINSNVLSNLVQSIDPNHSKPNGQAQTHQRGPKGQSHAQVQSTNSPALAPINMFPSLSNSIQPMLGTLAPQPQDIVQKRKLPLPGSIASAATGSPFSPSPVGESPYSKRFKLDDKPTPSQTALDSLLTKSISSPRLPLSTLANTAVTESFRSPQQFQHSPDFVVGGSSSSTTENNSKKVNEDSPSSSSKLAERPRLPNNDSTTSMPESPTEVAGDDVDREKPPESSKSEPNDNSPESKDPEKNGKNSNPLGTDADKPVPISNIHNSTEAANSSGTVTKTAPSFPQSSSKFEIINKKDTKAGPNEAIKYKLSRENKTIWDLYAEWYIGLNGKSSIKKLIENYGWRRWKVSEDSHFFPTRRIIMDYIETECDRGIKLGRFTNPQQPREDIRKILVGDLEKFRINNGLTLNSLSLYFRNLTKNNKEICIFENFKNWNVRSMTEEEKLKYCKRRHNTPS
Experimental: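 Universal 'all 10-mer' protein binding microarrays (Agilent AMADID 015681) probed with GST-tagged S. cerevisiae TFs (full-length or DBD) made by in vitro transcription/translation (PURExpress), about 100-200 nM. Bound TF was detected with fluorescent anti-GST. Each ungapped 8-mer (which stands for itself and its reverse complement) is scored by the PBM enrichment score (E-score), a modified Wilcoxon-Mann-Whitney statistic from -0.5 to +0.5, computed with the Universal PBM Analysis Suite. Scale: above 0.35 generally sequence-specific binding.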

Row | Sequence | PBM E-score
1 | TGGGAAAA | -0.0555
2 | TCTCAGAA | 0.00947
3 | TCAAGTGA | -0.0372
4 | CTACGGGC | 0.141
5 | GCAAACGC | -0.0923
6 | AATATTCG | 0.155
7 | AGGCCTCG | -0.31
8 | AGATGACT | -0.136
9 | GACGTGCA | -0.0428
10 | CCCTACCC | -0.0215
11 | TCCAACAA | 0.0707
12 | ACTAACAA | 0.135
13 | TAGTAGGA | 0.0257
14 | AGGTATAC | -0.101
15 | ACCGGGCC | 0.00575
16 | ACCGACAC | -0.136
17 | GCTTTGAC | -0.202
18 | GAATTCGC | 0.103
19 | ATGCTCCA | 0.00275
20 | CGACGCCG | 0.349
21 | AAAAGAGG | 0.0508
22 | CAATCTCG | -0.205
23 | GACGTATC | -0.108
24 | AAGGACGA | -0.163
25 | CCGACCAC | -0.0396

Row | Sequence | PBM E-score
26 | GAAAGTGA | 0.0212
27 | AACCAGAA | 0.281
28 | AACTCTGA | 0.0783
29 | AGATCTTG | -0.202
30 | ACTAGGAC | -0.00928
31 | AGCGCAAT | 0.0239
32 | AAATTACT | 0.115
33 | CTGAATTA | 0.241
34 | CTGCTAGC | -0.15
35 | CAATATAG | 0.103
36 | CTGCACTA | -0.145
37 | AGGCATAA | -0.157
38 | AGTACCGC | -0.0905
39 | ATGGTCGG | -0.113
40 | ATTGTCTG | -0.22
41 | GTGCACAA | -0.0643
42 | GGTTTAAA | -0.0771
43 | ACGTCGAA | 0.0569
44 | AAGTCCGT | -0.204
45 | CAGAAAGC | -0.0028
46 | CAATTCCA | 0.0815
47 | ACTTTGTA | -0.172
48 | CGGCCTAC | -0.111
49 | ATCTACAC | -0.0227
50 | CCCGATAG | 0.0207

Row | Sequence | PBM E-score
51 | CTTACTGA | -0.127
52 | CGTTATGC | -0.123
53 | AGCCACAG | -0.0526
54 | TCACTGCA | -0.188
55 | TAAACGGA | 0.129
56 | CGATGCTC | 0.0296
57 | ATGCTGAC | 0.0506
58 | GAAGTAGA | -0.181
59 | ACAAGCAT | 0.15
60 | ACAAAAAG | 0.21
61 | CCCCTACC | 0.119
62 | ATCATTTG | 0.0162
63 | GGGTAATA | 0.0147
64 | TGGGTACA | 0.00845
65 | TAGCGTGA | 0.0329
66 | AATAAGAT | 0.0233
67 | ACTTTTAT | 0.213
68 | CGATACGA | 0.011
69 | GATATGTA | -0.0283
70 | CCCTACTA | 0.0892
71 | CAGCAAAC | 0.0152
72 | CGGCTCGC | -0.0257
73 | CATTGAAG | -0.12
74 | TTAGCGAA | -0.0886
75 | ACGGTATC | -0.0774

Row | Sequence | PBM E-score
76 | ATCGTGAA | -0.006
77 | CAGTAAAA | 0.0267
78 | CAACAACG | 0.00989
79 | CCTTTAGA | 0.103
80 | CCGATAGA | 0.0663
81 | CATCATAA | 0.0455
82 | CCAGAAAA | 0.335
83 | CTAATGAC | -0.051
84 | CCGTGGTA | -0.241
85 | AACGGCCC | -0.139
86 | GCAAAATA | 0.0557
87 | CATGCCCG | -0.216
88 | ATCAGTAA | 0.178
89 | CGCAATGA | 0.0652
90 | CTTCTTCA | 0.0686
91 | GGTCGACC | -0.168
92 | GCAATAGC | -0.0441
93 | GTGCCTAA | -0.117
94 | AATGATAT | 0.129
95 | AGGGACAT | -0.0927
96 | GACGGCTA | -0.145
97 | ACAGAGTG | -0.011
98 | AGAATAAA | 0.00766
99 | ATGCGTCG | 0.108
100 | TAAGAATA | 0.103

Row | Sequence | PBM E-score
101 | CAACAGGG | -0.18
102 | AACGGCGG | -0.0539
103 | AGCGACCG | -0.0215
104 | CAAGCACA | -0.0864
105 | AATAATTG | 0.0775
106 | CAAGGTTA | 0.0221
107 | CAGACCAA | 0.0207
108 | ACCTCCGC | -0.0164
109 | CCGTACGG | -0.162
110 | AAAGTATA | -0.0634
111 | ACAGTGGG | 0.175
112 | ATAACGAA | -0.0657
113 | CTTGTTCA | 0.0893
114 | GCGGTACC | 0.0358
115 | TGCCAGCA | 0.125
116 | GTCGTGAA | -0.0512
117 | TCACAGCA | 0.0925
118 | AGAAGTAC | -0.0476
119 | AAAGTAAT | 0.154
120 | GAGATCAC | -0.127
121 | TGCGCAAA | 0.036
122 | AACACACA | 0.105
123 | GAATTAGC | 0.0262
124 | GAACCCAC | 0.185
125 | TGTACCAA | -0.171

Row | Sequence | PBM E-score
126 | ACCGGCCG | 0.038
127 | AGATTTCG | 0.113
128 | CATTTCTA | -0.0239
129 | AGAGTTGA | -0.18
130 | GAAGTCCC | -0.0966
131 | GACGGGAA | -0.00518
132 | CTCTGGCC | -0.0449
133 | ATGATACG | 0.107
134 | GTGACCAA | 0.116
135 | AATTCTAG | 0.195
136 | CTCGGCAA | 0.0422
137 | ACCGAAGA | -0.0355
138 | CAAGCAAC | -0.135
139 | GTAACGTA | -0.152
140 | CTTTATCC | 0.149
141 | ATTGGCTA | -0.158
142 | CCTATAAG | 0.212
143 | AGGTGGAA | 0.0333
144 | ACAGATCC | 0.0629
145 | ACAAGTCG | -0.00176
146 | AAACACGT | -0.0869
147 | AGTTTAGA | 0.162
148 | AGGCACTA | -0.113
149 | AGGATACC | 0.242
150 | AGCTAGCG | -0.149

Row | Sequence | PBM E-score
151 | ATACGTCC | -0.0269
152 | AATCAATT | 0.0938
153 | CCCCCTGC | -0.262
154 | CTGAGCAC | 0.146
155 | AGTCCTGC | 0.0253
156 | CTATTCGC | 0.0553
157 | GTAATCAA | -0.112
158 | GCAGACGC | 0.15
159 | AAGGGGTC | -0.19
160 | GAGGTACA | -0.0675
161 | AACTGAAT | 0.145
162 | GCCTCCCC | 0.165
163 | CTCGTCGA | -0.314
164 | AACTATCT | -0.0328
165 | ATATCCTC | -0.118
166 | AGGGTGAC | 0.019
167 | CTATATCC | 0.0474
168 | GACCTTAA | -0.0557
169 | CAACTTGG | 0.0901
170 | AGGGTGAG | -0.186
171 | AGAGTACT | -0.304
172 | CGACATTC | -0.0306
